# From the supplement of paper PMC8183993
# “And” between values parts separate entries of the source, which are not always exact repeats. Equal entries are not always repeated. Structures can show the parent of a compound that is named as a salt. ± gives the standard deviation of the averaged measurements. The full ranking holds about 3,100 compounds; the median of “mean cytoplasmic OPP incorporation (global translation) relative to DMSO” is about 100, and the lowest 2% start at about 56. The list shows a part of the results.
# Test system: U2OS
# Test: mean cytoplasmic OPP incorporation (global translation) relative to DMSO (% of DMSO); higher = more protein synthesis
# Settings: 10 µM; 24 h
# Procedure: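 Primary image-based screen in U2OS cells: compounds at 10 uM for 24 h, then a 1 h o-propargyl-puromycin (OPP) pulse, click labelling, and high-throughput microscopy. Mean cytoplasmic OPP intensity and nuclei count were normalised to DMSO wells within each plate (DMSO = 100) and averaged over triplicate plates.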
row,SMILES,mean cytoplasmic OPP incorporation
1,Nc1[nH]nc2nnc(-c3c(-c4ccccc4)nn4ccccc34)cc12,82.7
2,COc1ccc(/C=C\c2cc(OC)c(OC)c(OC)c2)cc1O [Combretastatin A4],85.9
3,CCCC1O[C@@H]2C[C@H]3[C@@H]4CCC5=CC(=O)C=C[C@]5(C)[C@H]4[C@@H](O)C[C@]3(C)[C@]2(C(=O)CO)O1 (stereo partly drawn) [Budesonide],110 ± 2.8
4,COc1cc(C(C)=O)ccc1OCCCN1CCC(c2noc3cc(F)ccc23)CC1 [Iloperidone (Fanapt)],110
5,CCOC(=O)[C@H](CCc1ccccc1)N[C@H]1CCCN2CCC[C@@H](C(=O)O)N2C1=O [Cilazapril monohydrate (Inhibace)],97
6,COC(=O)c1c(C)[nH]c(C)c1C(=O)c1ccccc1Cc1ccccc1,106 and 102
7,CC(C)n1nnc2cc(C(=O)O)ccc21,98
8,CC(C1=C(CCN(C)C)Cc2ccccc21)c1ccccn1 (stereo in doubt) [(S)-(+)-Dimethindene maleate],99.1
9,O=C(O)Cc1ccc(OCCNC[C@H](O)c2ccccc2)cc1 [ZD 2079 hydrochloride],103
10,CC(C(=O)O)c1cccc(C(=O)c2ccccc2)c1 (stereo not drawn) [Ketoprofen],104
11,COC(=O)N[C@H](C(=O)N1CCC[C@H]1c1ncc(-c2ccc(-c3ccc(-c4cnc([C@@H]5CCCN5C(=O)[C@@H](NC(=O)OC)C(C)C)[nH]4)cc3)cc2)[nH]1)C(C)C,110
12,CC1=C(/C=C/C(C)=C/C=C/C(C)=C/C=C/C=C(C)/C=C/C=C(C)/C=C/C2=C(C)C(=O)CCC2(C)C)C(C)(C)CCC1=O [Canthaxanthin],111
13,Cc1cc(C)c2c(c1)[C@@H](N(Cc1cc(C(F)(F)F)cc(C(F)(F)F)c1)c1nnn(C)n1)CCCN2C[C@H]1CC[C@H](C(=O)O)CC1,109
14,CNC(=O)c1ccccc1Nc1nc(Nc2ccc(N3CCOCC3)cc2OC)ncc1Cl,90.7 ± 4.2
15,CC1=C(C(=O)Nc2cc3cn[nH]c3cc2F)C(c2ccc(C(F)(F)F)cc2)CC(=O)N1 (stereo not drawn),104 ± 4.6
16,CCOC(=O)c1ncn2c1CN(C)C(=O)c1cc(F)ccc1-2 [Flumazenil],103
17,COc1cc(/C=C/c2ccc(O)cc2)cc(OC)c1 [Pterostilbene],95.8
18,NCC(O)(CS(=O)(=O)O)c1ccc(Cl)cc1 (stereo not drawn) [2-Hydroxysaclofen],105
19,CC[C@H](NC(=O)c1c(C)c(-c2ccccc2)nc2ccccc12)c1ccccc1,105
20,CCOc1cc(CC(=O)N[C@@H](CC(C)C)c2ccccc2N2CCCCC2)ccc1C(=O)O [Repaglinide],110.1 ± 0.62
21,O=C(O)C(Cc1c[nH]c2ccccc12)N1C(=O)c2ccccc2C1=O (stereo not drawn),104
22,CCOC(=O)C1=C(C)NC(C)=C(C(=O)OCC)C1c1ccccc1/C=C/C(=O)OC(C)(C)C [Lacidipine],106

row,SMILES,mean cytoplasmic OPP incorporation
1,C[C@H](NC[C@H](O)CP(=O)(O)CC1CCCCC1)c1ccc(Cl)c(Cl)c1,97.4
2,O=S(=O)(c1ccccc1)N(CC(F)(F)F)c1ccc(C(O)(C(F)(F)F)C(F)(F)F)cc1,98.7
3,CCCCN(CCCC)CCC(O)c1cc2c(Cl)cc(Cl)cc2c2cc(C(F)(F)F)ccc12 (stereo not drawn) [Halofantrine hydrochloride],120
4,C#C[C@]1(O)CC[C@H]2[C@@H]3CCc4cc(O)ccc4[C@H]3CC[C@@]21C [Ethinyl Estradiol],96.8
5,C#C[C@]1(O)CC[C@H]2[C@@H]3CCc4cc(O)ccc4[C@H]3CC[C@@]21C [Ethinylestradiol],90.1
6,"COc1cc(F)c(F)c(Nc2ccc(I)cc2F)c1NS(=O)(=O)C1(C[C@H](O)CO)CC1 [Refametinib (RDEA119, Bay 86-9766)]",93.1
7,Oc1ccc(-c2c(-c3ccccc3)nn3c(C(F)(F)F)cc(C(F)(F)F)nc23)cc1,103
8,CCCCCN(CCCCC)C(=O)C(CCC(=O)O)NC(=O)c1ccc(Cl)c(Cl)c1 (stereo not drawn) [Lorglumide sodium salt],98.9
9,Cc1cc(N2CCOCC2)cc2[nH]c(-c3c(NC[C@@H](O)c4cccc(Cl)c4)cc[nH]c3=O)nc12,100
10,CC(C)(C)NC(=O)[C@@H]1C[C@@H]2CCCC[C@@H]2CN1C[C@@H](O)[C@H](Cc1ccccc1)NC(=O)[C@H](CC(N)=O)NC(=O)c1ccc2ccccc2n1 [Saquinavir mesylate],116
11,COc1ccc2[nH]c([S@@+]([O-])Cc3ncc(C)c(OC)c3C)nc2c1 [Esomeprazole magnesium (Nexium)],95.5
12,CS(=O)(=O)N1CCN(Cc2cc3nc(-c4cccc5[nH]ncc45)nc(N4CCOCC4)c3s2)CC1 [Pictilisib (GDC-0941)],73.8
13,CC(C)NCC(O)c1ccc(O)c(O)c1 (stereo not drawn) [Isoproterenol hydrochloride],96.3
14,Nc1nc2c(ncn2COCCO)c(=O)[nH]1 [Acyclovir],99 ± 3.6
15,Cc1ccccc1C(=O)c1ccc(Nc2ccc(Br)cc2N)cc1Cl,98.5
16,CC(=O)OCC(=O)[C@@]1(O)[C@H](C)C[C@H]2[C@@H]3CCC4=CC(=O)C=C[C@]4(C)[C@@]3(F)[C@@H](O)C[C@@]21C [Dexamethasone acetate],100 ± 2.4
17,COc1ncnc(NS(=O)(=O)c2ccc(N)cc2)c1OC [Sulfadoxine],109
18,c1ccc(C(O[C@@H]2CCCN(CCc3ccc4c(c3)OCO4)C2)c2ccccc2)cc1 [Zamifenacin fumarate],107
19,COc1ccc(C(=O)c2ccccc2)c(O)c1 [Oxybenzone],101
20,COc1c(N2C[C@@H]3CCCN[C@@H]3C2)c(F)cc2c(=O)c(C(=O)O)cn(C3CC3)c12 [Moxifloxacin],104
21,CC1(C)CCC[C@]2(C)[C@H]3CC(=O)O[C@]3(C)CC[C@@H]12 [Sclareolide (Norambreinolide)],104
